Measurements: EPA's CvTdb concentration-time database
This continues a long series; more values of the same kind are listed elsewhere.

Assays:
Test in all cases: concentration in plasma after dosing
Rat [1] = settings: 5 min; dosed: Di-n-butyl phthalate; 200 mg/kg; oral; Male; Sprague-Dawley
Rat [2] = settings: 3 h; dosed: Di-n-butyl phthalate; 200 mg/kg; oral; Male; Sprague-Dawley
Rat [3] = settings: 3 h; dosed: Di-n-butyl phthalate; 200 mg/kg; oral; Male; Sprague-Dawley; remark: listed apart in the source
Rat [4] = settings: 10 h; dosed: Di-n-butyl phthalate; 200 mg/kg; oral; Male; Sprague-Dawley
Rat [5] = settings: 24 h; dosed: Di-n-butyl phthalate; 200 mg/kg; oral; Male; Sprague-Dawley
Rat [6] = settings: 24 h; dosed: Di-n-butyl phthalate; 200 mg/kg; oral; Male; Sprague-Dawley; remark: listed apart in the source
Rat [7] = settings: 6 h; dosed: Di-n-butyl phthalate; 200 mg/kg; oral; Male; Sprague-Dawley
Rat [8] = settings: 6 h; dosed: Di-n-butyl phthalate; 200 mg/kg; oral; Male; Sprague-Dawley; remark: listed apart in the source
Rat [9] = settings: 2 h; dosed: Di-n-butyl phthalate; 200 mg/kg; oral; Male; Sprague-Dawley
Rat [10] = settings: Male
Rat [11] = settings: 15 h; dosed: Di-n-butyl phthalate; 200 mg/kg; oral; Male; Sprague-Dawley
Rat [12] = settings: 0.25 h; dosed: Di-n-butyl phthalate; 200 mg/kg; oral; Male; Sprague-Dawley
Rat [13] = settings: 15 h; dosed: Di-n-butyl phthalate; 200 mg/kg; oral; Male; Sprague-Dawley; remark: listed apart in the source
Rat [14] = settings: 1 h; dosed: Di-n-butyl phthalate; 200 mg/kg; oral; Male; Sprague-Dawley
Rat [15] = settings: 0.25 h; dosed: Di-n-butyl phthalate; 200 mg/kg; oral; Male; Sprague-Dawley; remark: listed apart in the source
Rat [16] = settings: 1 h; dosed: Di-n-butyl phthalate; 200 mg/kg; oral; Male; Sprague-Dawley; remark: listed apart in the source
Rat [17] = settings: 5 min; dosed: Di-n-butyl phthalate; 200 mg/kg; oral; Male; Sprague-Dawley; remark: listed apart in the source
Rat [18] = settings: 0.5 h; dosed: Di-n-butyl phthalate; 200 mg/kg; oral; Male; Sprague-Dawley
Rat [19] = settings: 0.5 h; dosed: Di-n-butyl phthalate; 200 mg/kg; oral; Male; Sprague-Dawley; remark: listed apart in the source
Rat [20] = settings: 10 h; dosed: Di-n-butyl phthalate; 200 mg/kg; oral; Male; Sprague-Dawley; remark: listed apart in the source
Rat [21] = settings: dosed: Nitrite, 20 mg/kg, iv, Male, F344
Rat [22] = settings: dosed: Nitrite, 20 mg/kg, iv, Male, F344; remark: listed apart in the source
Rat [23] = settings: dosed: Nitrite, 20 mg/kg, iv, Male, F344; remark: listed apart in the source
Rat [24] = settings: dosed: Nitrite, 20 mg/kg, iv, Male, F344; remark: listed apart in the source
Rat [25] = settings: dosed: Nitrite, 20 mg/kg, iv, Male, F344; remark: listed apart in the source
Rat [26] = settings: dosed: Nitrite, 20 mg/kg, iv, Male, F344; remark: listed apart in the source
Rat [27] = settings: dosed: Nitrite, 20 mg/kg, iv, Male, F344; remark: listed apart in the source
Rat [28] = settings: dosed: Nitrite, 20 mg/kg, iv, Male, F344; remark: listed apart in the source

CCCCOC(=O)c1ccccc1C(=O)O [Mono-n-butyl phthalate]
Settings | concentration in plasma [µg/mL]
Rat [1] | 3.72
Rat [2] | 10.5
Rat [3] | 24.1
Rat [4] | 4.04
Rat [5] | 1.37
Rat [6] | 0.706
Rat [7] | 31.8
Rat [8] | 19.5
Rat [9] | 53.4
Rat [11] | 2.1
Rat [12] | 45.9
Rat [13] | 2.16
Rat [14] | 102
Rat [15] | 61.1
Rat [16] | 164
Rat [17] | 1.8
Rat [18] | 113
Rat [19] | 126
Rat [20] | 10.1

Rat [10], dosed: Di-n-butyl phthalate, 200 mg/kg, oral, Sprague-Dawley
Settings | concentration in plasma [µg/mL]
0.25 h | 31.4
0.5 h | 126
1 h | 102
2 h | 107
3 h | 12.5
5 min | 4.4
6 h | 34.3
10 h | 6.76
15 h | 1.97
24 h | 0.407

O=N[O-] [Nitrite]
Settings | concentration in plasma [µg/mL]
Rat [21], 1.25 h | 4.1
Rat [21], 10 min | 22.3
Rat [22], 1 h | 3.4
Rat [22], 5 min | 5.6
Rat [23], 1 h | 5.6
Rat [23], 5 min | 13.6
Rat [24], 0.5 h | 10.3
Rat [24], 2 h | 1.9
Rat [25], 1.5 h | 2.9
Rat [25], 20 min | 4.7
Rat [26], 1.25 h | 3.2
Rat [26], 10 min | 13.6
Rat [27], 0.5 h | 5.1
Rat [27], 2 h | 2.3
Rat [28], 1.5 h | 2.8
Rat [28], 20 min | 9.9

Rat [10], dosed: Nitrite, 20 mg/kg, iv, F344
Settings | concentration in plasma [µg/mL]
0.5 h | 9.8
0.75 h | 7.3
1 h | 3.6
1.25 h | 2.1
2 h | 2
5 min | 4.3
10 min | 7.4
20 min | 4
